# Laboratory results published in PubChem BioAssay AID485313 (National Center for Advancing Translational Sciences (NCATS), 2010).
# Among all 320,000 compounds or so, about 7,600 (2.4%) were called active. Inconclusive results, whose numbers are uncertain, are shown with a selection of clear calls. Calls follow the shape of the dose curve; as a rule, active = well fitted activation curve with a large enough effect; inconclusive = small, poorly fitted or top-dose-only effect; inactive = no such curve, though single readings can be large or run the other way. No potency is given beside an inconclusive call; the fits are too rough.
# Assay: qHTS Assay for NPC1 Promoter Activators; also: nearly all actives have a fitted effect of over 60% in size;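 as to activation: reporter is driven by a mutant NPC1 promoter; % of control where 0% means no effect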
# Details: Huh7 NPC1 promoter luciferase reporter, 24 h; series mostly up to 9.22 µM; activation: at the top concentration
# In short: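 Quantitative HTS used a cell-based reporter: Huh7 cells stably bearing the NPC1 promoter upstream of luciferase were treated with compounds for 24 h, and promoter activation was read as luminescence.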
# Potency is read from the fitted curve at half-maximal effect; tags tell the direction and shape of the fitted curve.
Structure (SMILES),Potency,activation
CCCOC(=O)c1ccc(-c2ccc(C=O)o2)cc1,"inconclusive [activator, partial curve]",
O=C(COC(=O)c1ccccc1Br)Nc1nnc(-c2ccccc2)o1,,inactive: -2.45%
CC(C)NC(=O)NC(=O)COc1c(F)c(F)cc(F)c1F,,inactive: -1.85%
O=C(Nc1nc2ccccc2s1)C1CCN(C(=O)c2ccco2)CC1,,inactive: -0.319%
O=C(NCCc1ccccc1F)C(=O)Nc1nccs1,"inconclusive [activator, partial curve]",
Cn1ncc2c(Nc3ccc(-c4ccccc4)cc3)ncnc21,"inconclusive [activator, single point]",
COc1ccc2c(c1)[nH]c1c(=O)n(Cc3ccco3)cnc12,"inconclusive [activator, single point]",
N#Cc1ccccc1NC(=O)c1ccc(-c2ccccc2Cl)o1,active: 3.98 µM,
COc1ccc(-c2cccc(C(=O)Nc3ccc(C)cc3)c2)cc1,,inactive: -3.78%
CCOC(=O)c1sc(NC(=O)c2cccs2)nc1C,"inconclusive [activator, single point]",
COc1ccc(NC(=O)CN(C)C(=O)CCCc2nc3ccccc3c(=O)[nH]2)cc1,,inactive: -4.45%
CCc1cc2c(=O)n(CC(C)C)cnc2s1,"inconclusive [activator, partial curve]",
Brc1ccccc1-n1nnc(-c2cccnc2)n1,"inconclusive [activator, single point]",
CCCCN1CN=C(Nc2nc3ccccc3o2)NC1,"inconclusive [activator, single point]",
CC(=O)Nc1cccc(-c2cnc3ccccc3n2)c1,active: 2.82 µM,
CS(=O)(=O)c1ccccc1C(=O)Nc1ccc(-c2nc3ccccc3o2)cc1,"inconclusive [activator, partial curve]",
Cc1ccc(-n2c(C)cc(C(=O)COC(=O)c3c(C)noc3C)c2C)cc1,"inconclusive [activator, full curve]",
CCOC(=O)c1ccc2[nH]c3c(c2c1)CCCC3,active: 2.82 µM,
C/C(=N\NC(=O)c1c(Cl)c(C)nn1C)c1cccc(NC(=O)COc2ccc(Cl)cc2)c1,"inconclusive [activator, partial curve]",
CC(C)(C)c1nnc(NC(=O)Nc2ccc(Cl)cc2)s1,"inconclusive [activator, partial curve]",
C/C(=N\Nc1cccc2cccnc12)c1ccc(C)cc1,"inconclusive [activator, single point]",

Structure (SMILES),Potency,activation
N/C(=N\OC(=O)c1ccccc1Cl)c1ccccc1,active: 3.16 µM,
COc1ccccc1-c1cc(C(=O)NCCc2ccccc2)no1,"inconclusive [activator, partial curve]",
COC(=O)c1ccc(CSc2nnc(N)s2)cc1,"inconclusive [activator, partial curve]",
C=CCn1c(CNc2ccc(C)cc2)nnc1SCC(=O)N/N=C/c1ccc(O)cc1,"inconclusive [activator, single point]",
CCOC(=O)c1ccc(OCC(=O)c2ccc(O)cc2O)cc1,,inactive: 21%
Cc1ccc(NC(=O)c2ccccc2F)nc1,active: 1.12 µM,
Cc1ccc(NC(=S)N2CCCCC2)cc1C,,inactive: -2.47%
COC(=O)Cn1ncc(N(C)Cc2ccccc2)c(Cl)c1=O,active: 2.51 µM,
O=C(CCSc1nc2ccccc2o1)Nc1ccccc1,,inactive: 1.46%
O=C(Nc1cccc(/C=C/c2nc3ccccc3c(=O)[nH]2)c1)c1ccccc1Cl,"inconclusive [activator, partial curve]",
Cc1cc2nn(-c3ccc(F)cc3)nc2cc1N,active: 2.51 µM,
O=C(Nc1ccc(F)cc1)Nc1ccc(N2CCOCC2)c2nonc12,"inconclusive [activator, partial curve]",
CCOC(=O)c1ccc(Nc2sc(C(=O)c3cccc([N+](=O)[O-])c3)c(N)c2C#N)cc1,,inactive: -28.1%
COc1ccc(C(=O)c2cc3cccc(OC)c3o2)cc1,active: 3.16 µM,
O=C(Nc1ccc2c(c1)OCO2)c1cnc2n(c1=O)CCS2,"inconclusive [activator, partial curve]",
COCc1ccc([C@@H]2C[C@H]3CN(Cc4cccnc4)C(=O)[C@]34CCCN24)o1,,inactive: -5.1%
c1csc(-c2ccc(N3CCOCC3)nn2)c1,active: 0.398 µM,
COc1cccc(CN(C(=O)c2cnccn2)C(C(=O)NC2CCCCC2)c2cc(OC)c(OC)c(OC)c2)c1 (stereo unspecified),,inactive: -4.49%
O=C(Nc1ccc(Oc2cccnc2)cc1)c1ccccc1F,"inconclusive [activator, partial curve]",
COC(=O)c1sccc1N/N=C/c1cccc(OC)c1O,active: 3.55 µM,
O=C(NCCc1ccccc1)c1ccc2c(c1)S(=O)(=O)N=C1CCCCCN12,,inactive: 11.1%

Structure (SMILES),Potency,activation
CC(=O)c1c(C)[nH]c(C(=O)NCCc2cccc(C)c2)c1C,"inconclusive [activator, partial curve]",
COc1cc(OC)cc(-c2nc(-c3cccs3)no2)c1,"inconclusive [activator, partial curve]",
CCc1ccc(C(=O)COC(=O)c2cccc(N3C(=O)c4c(C)nc5ccccc5c4C3=O)c2)cc1,"inconclusive [activator, single point]",
CC1(C2CC2)NC(=O)N(CC(=O)Nc2ccccc2F)C1=O (stereo unspecified),,inactive: -1.47%
O=C(O)c1ccc(-c2nc(-c3ccccc3Cl)cs2)cc1,"inconclusive [activator, partial curve]",
CC(C)CC1NC(=O)N(CC(=O)Nc2ccc(-c3ccccc3)cc2)C1=O (stereo unspecified),,inactive: -6.22%
O=C(NCc1ccco1)/C(=C\c1ccco1)NC(=O)c1ccco1,,inactive: -6.24%
COc1cc(C(C)=O)ccc1OCC(O)CN1CCN(c2c(C)cccc2C)CC1 (stereo unspecified),,inactive: 8.87%
O=C(NCc1ccc(F)cc1)C1CCCN1C(=O)Nc1cccc(F)c1 (stereo unspecified),,inactive: -3.97%
CCC(=O)Nc1nnc(/C=C/c2ccc(OC)cc2)s1,"inconclusive [activator, single point]",
CCN(CC)C(=O)Cn1cc(S(=O)(=O)CC(=O)Nc2ccc(F)cc2F)c2ccccc21,,inactive: 0.805%
Cc1sc(NC(=O)c2ccc(Cl)s2)c(C(N)=O)c1C,"inconclusive [activator, single point]",
COc1ccc(CCNC(=O)CSc2n[nH]c(N)n2)cc1,"inconclusive [activator, single point]",
O=C(Nc1ccc(F)c(F)c1)c1ccccc1,"inconclusive [activator, single point]",
O=C(COc1ccc2ccccc2c1)NNC(=O)Cc1cccc2ccccc12,,inactive: -4.98%
CCOC(=O)c1cn2nc(N3CCCCC3)ccc2n1,active: 0.316 µM,
CCNC(=S)N(CCc1ccc(OC)c(OC)c1)Cc1cc2cc(OC)ccc2[nH]c1=O,,inactive: -2.23%
CCc1cc(C(=O)NNC(=S)NC2CCCCC2)cs1,active: 3.55 µM,
Cc1ccc(C(=O)NC(=S)Nc2ccc3c(c2)OCCO3)c(C)c1,"inconclusive [activator, single point]",
CCOc1ccc(CCNC(=O)c2c(C)nn(-c3ccccc3)c2Cl)cc1OCC,,inactive: -2.02%
Cc1nc2cc(NC(=O)Nc3ccc(Br)cc3)ccc2o1,active: 1.78 µM,

Structure (SMILES),Potency,activation
COc1ccccc1C(=O)Nc1ccc2c(c1)OCCO2,active: 3.16 µM,
COc1cccc2cc(-c3nc(-c4cccs4)cs3)c(=O)oc12,active: 3.55 µM,
Cc1ccsc1CNCc1cc(Cl)ccc1O,,inactive: 8.18%
O=c1cc(-c2ccccc2Cl)oc2c(Br)ccc(O)c12,"inconclusive [activator, single point]",
CCOc1cc(-c2c(C#N)c(N)nc3c2CCc2ccccc2-3)ccc1O,,inactive: -1.25%
CCOCC(=O)Nc1c(C(=O)Nc2ccc3c(c2)OCO3)oc2ccccc12,"inconclusive [activator, partial curve]",
CCC1CCCCN1CCCNC(=O)c1ccc(/C=C2/Sc3ccccc3NC2=O)cc1 (stereo unspecified),"inconclusive [activator, partial curve]",
CC(=O)Oc1ccc(-c2csc(Nc3ccc(Cl)cn3)n2)cc1,"inconclusive [activator, single point]",
O=C(O)c1ccc2nc(-c3ccccc3)c(-c3ccccc3)nc2c1,"inconclusive [activator, partial curve]",
COC(=O)c1cc(C(=O)OC)cc(-n2c(C)cc(C(=O)COC(=O)CNS(=O)(=O)c3ccc(C)cc3)c2C)c1,,inactive: -0.0051%
Cc1cc(NCCCN2CCOCC2)n2ncc(-c3ccc(Cl)cc3)c2n1,"inconclusive [activator, partial curve]",
CC(=O)N(C)c1ccc(NC(=O)Nc2ccccc2C)cc1,"inconclusive [activator, partial curve]",
COc1ccc(/C=N/Nc2nc3ccccc3s2)cc1O,"inconclusive [activator, single point]",
CCn1c(N2CCN(S(=O)(=O)c3ccc(Cl)cc3)CC2)nc2ccccc21,,inactive: -9.9%
CC(C)(C)C(=O)NC(=S)Nc1sc2c(c1C#N)CCCCC2,,inactive: 26.6%
C=CCOc1cccc(CNc2cccc(C(=O)O)c2)c1,"inconclusive [activator, partial curve]",
COc1ccc(-c2nsc3c(N4CCCC4)ncnc23)cc1,active: 3.98 µM,
CCOC(=O)c1sc2nc(NC(=O)C3CC3)sc2c1C,"inconclusive [activator, partial curve]",
